According to patent publication US9650423B2, “Long peptides of 22-45 amino acid residues that induce and/or enhance antigen specific immune responses” (priority 2000, dated 2017):

System: TC-1 tumor (HPV 16 E6/E7 and c-H-ras)
Test: Therapeutic vaccination of tumor bearing mice
[1] = vaccinated with ODN-CpG when tumors palpable and 14 days later

## RAHYNIVTF (minimal 9 amino acid long CTL epitope) [E7 49-57, reference compound]
Vaccinated with CpG, 65 days follow-up
  mice that died of their tumor: 6/9
[1]
  animals with complete eradication: 30%
  mice with complete eradication of tumor: 3 out of 9
